Data: PubChem BioAssay (NCI)
Several values for one entry are separate records, joined by “and”; a condition that tells them apart may be missing. Equal entries are not always repeated.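 48-hour exposure; five concentrations; linearly interpolated endpoints. The concentration for 50% growth inhibition is given as GI50. Definition used: TGI = concentration required for complete inhibition of growth.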 Peptide text beside a SMILES is read from it. * marks the point of attachment. Palmitoyl = CCCCCCCCCCCCCCCC(=O)*

These molecules were tested on NCI-H322M lung (assay: NCI anticancer screen, dose series, 48 h).

Compound	TGI	GI50
O=C1C(Cl)C2(CC(/C=C/c3ccccc3)=NN2c2cccc(S(=O)(=O)O)c2)N1c1nc2ccccc2s1 (centres undefined)	> 100 µM	
COc1cc(C(C)O)c[n+](Cc2ccccc2)c1 (centres undefined)	> 100 µM	
O[C@@]12Cc3c([nH]c4ccccc34)[C@@H]3Oc4cccc5c4[C@@]31CCN(CC1CC1)[C@@H]2C5	69.8 µM	
Cc1cc(N(CCC#N)CCC#N)ccc1/C(N=Nc1cccc(Cl)c1)=N/NC(=O)c1cc(Cl)ccc1O	54.1 µM	
CCC1OC2C(CC=C(C)C)=C3OC(C)(O)C(C)(CC)C(OC(C)=O)C3=C3OC(=O)C=C1C32 (centres undefined)	> 100 µM	
O=C(c1ccccc1)N(C(=O)c1ccccc1)c1nc(SCc2ccccc2)ns1	97.2 µM	
CCOC(=O)/C(C#N)=C(O)/C(=C\c1ccc(Br)cc1)NC(=O)c1ccccc1	> 100 µM	
CC1(C)OCC([C@H]2O[C@@H](CC(=S)NCCCCCCCCCCCCNC(=S)C[C@H]3O[C@@H](C4COC(C)(C)O4)[C@H]4OC(C)(C)O[C@H]43)[C@H]3OC(C)(C)O[C@H]32)O1 (some centres undefined)	> 100 µM	
CCCCCCNC(=O)Oc1ccc(/C(=C(\C)c2ccc(Cl)cc2)c2ccc(OCCN3CCCCC3)cc2)cc1	11.5 µM	4.46 µM
O=[N+]([O-])c1cccc2nc3ccccc3c(NCCCNc3c4ccccc4nc4cccc([N+](=O)[O-])c34)c12	0.293 µM	
COCOCC/C=C/C=O	> 100 µM	
COc1ccc(NC(=O)C2CCC(CNS(=O)(=O)c3ccccc3)CC2)cc1OC (centres undefined)	> 100 µM	> 100 µM
C/C=C/C#CC#C/C=C/C=C/C(O)CCO (centres undefined)	> 23.1 µM	
C(=N/N(Cc1ccccc1)Cc1ccccc1)/c1ccccc1	> 100 µM	> 100 µM
O=C(O)c1cccc(C(=O)O)c1S(=O)Cc1ccccc1 (centres undefined)	> 100 µM	
O=C(N/N=C/c1ccc([N+](=O)[O-])cc1)Nc1ccc(C(=O)O)cc1	> 100 µM	
CC1(C)CC[C@]2(C)CC[C@]3(C)C(=CC[C@@H]4[C@@]5(C)CCC(=O)C(C)(C)[C@@H]5[C@H](O)C[C@]43C)[C@@H]2C1	31.5 µM	
O=C(CCCCCCN1CC(=O)N2[C@@H](c3ccc(Cl)c(Cl)c3)c3[nH]c4ccccc4c3C[C@H]2C1=O)NO	19.2 µM	4.88 µM
COC(=O)C(CCSC)NC(=O)CNC(=O)CSc1nnc(COc2ccc(Cl)cc2)n1-c1ccccc1 (centres undefined)	32.5 µM	
CSC(=S)Nc1cccc(C)n1	> 100 µM	
C#CCNC(=O)[C@H](CC)[C@H]1CC[C@H](C)[C@H]([C@@H](C)[C@H](O)[C@H](C)C(=O)[C@H](CC)C2O[C@]3(C=CC(=O)[C@]4(CC[C@@](C)([C@H]5CC[C@](O)(CC)[C@H](C)O5)O4)O3)[C@H](C)C[C@@H]2C)O1 (some centres undefined)	> 100 µM	3.44 µM
O=C(O)Cc1cccnc1	> 100 µM	
O=[N+]([O-])c1ccc(N2CCOCC2)c2c1no[n+]2[O-]	18.3 µM	5.17 µM
CSc1nc2sc3c(c2c(=O)n1-c1ccc(C(C)C)cc1)CCC(=O)C3	> 100 µM	3.03 µM

Compound	TGI	GI50
CC(C)(Br)C(=O)C(Br)Br	30.9 µM and 90.3 µM	48.8 µM
COc1ccc(OC)c(CNc2ccc(C(=O)O)cc2)c1	> 100 µM	
NC(=O)C(=O)C1CCC2=C(Sc3ccccc3N2)C1=O (centres undefined)	> 100 µM	
N#CCCN1C/C(=C/c2ccc(Cl)cc2)C(=O)/C(=C/c2ccc(Cl)cc2)C1	10.7 µM	3.44 µM
OCCNC1c2cc(Cl)ccc2-c2c(Cl)cc(Cl)cc21 (centres undefined)	> 100 µM	
CC1=NC(=Cc2ccccc2O)C(=O)N1n1c(-c2ccccc2)nc2ccccc2c1=O	> 100 µM	
CC1(C)OC(=S)N(c2ccccc2)C12C=Cc1ccccc1O2 (centres undefined)	> 100 µM	
CC1OC(OC2C(O)CC(OC3C(O)CC(OC4CCC5(C)C(CCC6C5CC(O)C5(C)C(C7=CC(=O)OC7)CCC65O)C4)OC3C)OC2C)CC(O)C1O (centres undefined)	0.226 µM	0.0489 µM
Cc1cccc2c3c(sc12)C(c1ccc(Cl)cc1)C(C#N)=C(N)O3 (centres undefined)	23.8 µM	0.696 µM
N#CCN1CCn2c1nsc2=S	> 100 µM	> 100 µM
C[N+](C)(C)CC1CCCC1=O (centres undefined)	31 µM	
Cn1c(-c2ccccc2)cc(-c2cccs2)c1-c1cccs1	> 100 µM	
Cc1nc2ccc(C(F)(F)F)cc2nc1NCc1ccc(Cl)c(Cl)c1	29.8 µM	
COC1C(O)C(CO)OC(OC2C(O)COC(OC3C(C)OC(OC4C(O[C@H]5CC[C@@]6(C)C(CC=C7[C@H]6CCC68C(=O)O[C@@](C)(CCCC(C)C)[C@H]6[C@@H](OC(C)=O)C[C@@]78C)C5(C)C)OCC(OS(=O)(=O)O)C4O)C(OC4OCC(O)C(O)C4O)C3O)C2O)C1O (some centres undefined)	0.309 µM	0.116 µM
CC(=O)Oc1ccc(/C=C/C(=O)OCCCOC(=O)/C=C/c2ccc(OC(C)=O)c(OC(C)=O)c2)cc1OC(C)=O	> 100 µM	
CCOC(=O)/C=C/CCO[Si](C)(C)C(C)(C)C	> 100 µM	
COc1ccc(CCC2c3cc(OC)c(OC)cc3CCN2C)cc1OC (centres undefined)	> 100 µM	
Nc1nc(Nc2ccccc2)c2[nH]cnc2n1	> 100 µM	
Oc1[nH]c2ccccc2c1N=NC(=S)Nc1ccccc1Cl	42.5 µM	
CCCCCCCC1(N=[N+]=[N-])C(=O)Nc2ccccc2C1=O (centres undefined)	31.7 µM	
CCC1(O)C(=O)OCc2c1cc1n(c2=O)Cc2cc3c(NC(=O)CN)cccc3nc2-1 (centres undefined)	40 µM	2.83 µM
O=C(/C=C/c1cccc(O)c1)c1cccc(-n2cc(-c3ccccc3)[nH]c2=O)c1	14.8 µM	4.97 µM
C[C@]12C[C@@H](OC(=O)[C@]1(C)O)[C@@H]([C@]1(O)CC[C@H]3[C@@H]4C[C@H]5O[C@]56C[C@H]5O[C@H]5C(=O)[C@]6(C)[C@H]4CC[C@@]31C)C2	> 50 µM	
CCCCCCCCCCCCCCCC(=O)N1CCCC1C(=O)NCC(=O)NC(Cc1ccccc1)C(=O)NC(C)C(=O)NC(CO)C(=O)NC(Cc1ccc(O)cc1)C(=O)NC(CCCCN)C(=O)NC(CC(C)C)C(=O)NC(CCCN=C(N)N)C(=O)N1CCCC1C(=O)NCC(N)=O (centres undefined) (Palmitoyl-PGFASYKLRPG-NH2; configuration not given here)	46.1 µM	16.8 µM

Compound	TGI	GI50
O=c1[nH]cc(F)c(=O)n1C1OC(CO)C(O)C1O (centres undefined)	> 100 µM	
O=c1c2cc(S(=O)(=O)O)ccc2nc(COc2ccc(Oc3ccc(Cl)cc3Cl)cc2)n1-c1ccc(Oc2ccc(Cl)cc2)cc1Cl	> 100 µM	
Fc1ccc(N2C(=S)SC(=Nc3ccccc3)C2=Nc2ccccc2)cc1	> 100 µM	
CCN1CCC(O)(/C=C/c2ccccc2C)C(C(=O)/C=C/c2ccccc2C)C1 (centres undefined)	12.5 µM	
CC1=NN(c2nc(N)nc(/C(C#N)=C\c3csc([N+](=O)[O-])c3)n2)C(C)(C)C1	> 100 µM	
O=[N+]([O-])c1ccc(OC2CC3C4C=CC3C2C4)c([N+](=O)[O-])c1 (centres undefined)	> 100 µM	83.4 µM and 30.7 µM
COC(=O)[C@@]1(C(C)CC(=O)O)CCCCC1=O (some centres undefined)	> 100 µM	
O=C(/C=C/c1ccc(Oc2cc(C(=O)/C=C/c3ccc(O)cc3)c(O)cc2O)cc1)c1ccc(O)cc1O	20.8 µM	
O=C1c2sccc2-c2cccc3cccc1c23 (tested in a mixture with another compound)	8.3 µM	
CCC(=O)C(CCN1CCC2(CCCc3ccccc32)CC1)(c1ccccc1)c1ccccc1	22.5 µM	
CCN(CC)c1ccc2c(c1)Oc1ccc(N(CC)CC)cc1C21Oc2ccccc2-c2c1c1ccccc1n2CC (centres undefined)	> 100 µM	
COc1ccc(/C(Br)=C2\OC(=O)c3ccccc32)cc1	> 10 µM	
ClCCN(CCCl)c1ccc(/C=N/Nc2ccnc3ccccc23)cc1	2.78 µM	
CC12C=CC(=O)C=C1CCC1C3CCC(O)(C(=O)CO)C3(C)CC(O)C12F (centres undefined)	> 100 µM	
Cc1c(-c2ccccc2)[nH]c2cc(Cl)ccc2c1=O	> 100 µM	
O=S(=O)(/C=C/C(=C/c1ccccc1)S(=O)(=O)c1ccccc1)c1ccccc1	3.51 µM	
Cc1ccc2nc(N/N=C/c3sccc3C)cc(C)c2c1	> 100 µM	
c1ccc2oc(-c3ccc(-c4nc5ccccc5o4)c4c3CC4)nc2c1	> 100 µM	
CCCCC1(C)C=C/C(=C2/C(=O)O/C(=C\C(=O)O)C2=O)O1 (centres undefined)	> 100 µM	
CCCC1CCC(=C2C(=O)CCC2=O)O1 (centres undefined)	> 100 µM	
Cc1ccc(C)c(N2C(=O)C(=O)C(c3nc4ccccc4s3)/C(=N/NC(=O)NN)C2=O)c1 (centres undefined)	> 100 µM	
COC(=O)c1cncc(/C=C/c2c(C)cc(O)cc2C)c1	> 25 µM	> 24 µM
N#Cc1nc(-c2ccco2)oc1N	> 10 µM	
[N-]=[N+]=NI1OC(=O)c2ccccc21	> 100 µM	

Compound	TGI	GI50
CCc1cccc(C)c1NC(=O)c1sc2nc3c(cc2c1N)C(=O)CCC3	> 100 µM	0.676 µM
COc1ccc(/C=C2\CCC(C)(CN(C)C)C2=O)cc1OC (centres undefined)	> 100 µM	
COc1c(=O)cc2cc[nH]c3ccn(C)c1c23	> 100 µM	
Oc1c(I)cc(I)c2cccnc12	23 µM	2.95 µM
CC12CCC(=O)N1c1ccc([N+](=O)[O-])cc1N2 (centres undefined)	> 100 µM	
N#CC1=C(/N=C/c2ccccc2)Oc2c(ccc3ccccc23)C1c1ccccc1 (centres undefined)	> 100 µM	2.18 µM
CC(=O)NC1C(OCc2ccccc2)OC(CO)C(O)C1OC(C)C(=O)NC(C)C(=O)NC(CCC(=O)NCCCCNc1c2ccccc2nc2cccc([N+](=O)[O-])c12)C(N)=O (centres undefined)	0.57 µM	
O=c1[nH]c(=S)nc2nc3c4ccc[nH]c4c4ccccc4c3nc12	> 100 µM	
C=CCN1CC(=O)N2[C@@H](Cc3ccc(O)cc3F)C(=O)N(Cc3cccc(N4CC(N5CCN(CC)CC5)C4)n3)C[C@@H]2N1C(=O)NCc1ccccc1	> 100 µM	0.0933 µM
CCOC(=O)C1(C(=O)OCC)[C@@H](c2ccccc2)C2=NO[C@@H]3CCC[C@H]1[C@H]23	> 100 µM	
Cc1ccc(/C(C#N)=C/c2cccc([N+](=O)[O-])c2)cc1	> 100 µM	
Cc1cn(CCCCC2=NCCCN2)c(=O)[nH]c1=O	> 65.5 µM	
CC1(c2ccccc2Cl)C(C#N)C(=O)NC(=O)C1C#N (centres undefined)	> 100 µM	
O=CNCNCCO	> 100 µM	
CC1=C(CC(=O)c2cccc([N+](=O)[O-])c2)C(=O)c2ccccc2C1=O	> 100 µM	57.6 µM
CCOC(=O)NNC(=O)NCc1cccc(CNC(=O)NNC(=O)OCC)c1	> 100 µM	
NS(=O)(=O)c1ccc(-c2cc3ccncc3cc2OCc2ccccc2)cc1	> 25 µM	> 25 µM
Cc1cc(N=Nc2ccccc2C)ccc1N	> 100 µM and 59.4 µM	16.7 µM
COC(=O)c1c(C)n([O-])c2cc(Cl)c(Cl)cc2[n+]1=O	59.7 µM	
NC(=O)NNC(=O)NC12CC3CC(CC(C3)C1)C2	> 100 µM	
CCCCCCCCCCCCC(Br)C(=O)NCC(N)=O (centres undefined)	28.5 µM	
C[N+](C)(C)c1ncnc2c1ncn2C1CC(O)C(CO)O1 (centres undefined)	> 100 µM	
